The record followed here is patent US20090258363.

Series [1] addresses 5-10 (E490K) mutant ZFP/FokI fusion protein.
The target of series [2] is 5-10 ZFP/FokI fusion protein (wild-type FokI cleavage half-domain).
Series [3] addresses 5-9D zinc finger/FokI fusion protein, wild-type FokI cleavage half-domain, P14870.
Series [4] deals with 5-9D zinc finger/FokI fusion protein, Q486E cleavage half-domain, P14870.

B1: 5-10 ZFP/FokI fusion protein (wild-type FokI cleavage half-domain) (protein)
chain: MAPKKKRKVGIHGVPAAMAERPFQCRICMRNFSRSDSLSRHIRTHTGEKPFACDICGRKFADSSNRKTHTKIHTGGGGSQKPFQCRICMRNFSRSDSLSVHIRTHTGEKPFACDICGRKFADRSNRITHTKIHLRQKDAARGSQLVKSELEEKKSELRHKLKYVPHEYIELIEIARNSTQDRILEMKVMEFFMKVYGYRGKHLGGSRKPDGAIYTVGSPIDYGVIVDTKAYSGGYNLPIGQADEMQRYVEENQTRNKHINPNEWWKVYPSSVTEFKFLFVSGHFKGNYKAQLTRLNHITNCNGAVLSVEELLIGGEMIKAGTLTLEEVRRKFNNGEINF
For the protein B1, the “DNA cleavage (in vitro, labeled ~400 bp substrate), 5-8 not present” value is on record as “Non-specific”.

B2: 5-8 ZFP/FokI fusion protein (wild-type FokI cleavage half-domain) (protein)
chain: MAPKKKRKVGIHGVPAAMAERPFQCRICMRNFSRSDNLSEHIRTHTGEKPFACDICGRKFARNAHRINHTKIHTGSQKPFQCRICMRNFSRSDTLSEHIRTHTGEKPFACDICGRKFAARSTRTTHTKIHLRQKDAARGSQLVKSELEEKKSELRHKLKYVPHEYIELIEIARNSTQDRILEMKVMEFFMKVYGYRGKHLGGSRKPDGAIYTVGSPIDYGVIVDTKAYSGGYNLPIGQADEMQRYVEENQTRNKHINPNEWWKVYPSSVTEFKFLFVSGHFKGNYKAQLTRLNHITNCNGAVLSVEELLIGGEMIKAGTLTLEEVRRKFNNGEINF
For the protein B2, the “DNA cleavage (in vitro, labeled ~400 bp substrate)” value in series [1] and in series [2] was “Specific” each time.

B3: 5-8G zinc finger/FokI fusion protein, wild-type FokI cleavage half-domain (protein)
chain: MAERPFQCRICMRNFSRSDNLSVHIRTHTGEKPFACDICGRKFARNAHRINHTKIHTGSQKPFQCRICMRNFSRSDTLSEHIRTHTGEKPFACDICGRKFAARSTRTNHTKIHLRGSQLVKSELEEKKSELRHKLKYVPHEYIELIEIARNSTQDRILEMKVMEFFMKVYGYRGKHLGGSRKPDGAIYTVGSPIDYGVIVDTKAYSGGYNLPIGQADEMQRYVEENQTRNKHINPNEWWKVYPSSVTEFKFLFVSGHFKGNYKAQLTRLNHITNCNGAVLSVEELLIGGEMIKAGTLTLEEVRRKFNNGEINF
In series [3], B3 gave a % GC (fraction of amplification product cleaved by BsrBI), 1 ug of each plasmid of 2.6%; a % GC (fraction of amplification product cleaved by BsrBI), 2.5 ug of each plasmid of less than 1%; a % GC (fraction of amplification product cleaved by BsrBI), 5 ug of each plasmid of 1.5%; a % GC (fraction of amplification product cleaved by BsrBI), 7.5 ug of each plasmid of less than 1%.

B4: 5-8G zinc finger/FokI fusion protein, Q486E cleavage half-domain (protein)
chain: MAERPFQCRICMRNFSRSDNLSVHIRTHTGEKPFACDICGRKFARNAHRINHTKIHTGSQKPFQCRICMRNFSRSDTLSEHIRTHTGEKPFACDICGRKFAARSTRTNHTKIHLRGSQLVKSELEEKKSELRHKLKYVPHEYIELIEIARNSTQDRILEMKVMEFFMKVYGYRGKHLGGSRKPDGAIYTVGSPIDYGVIVDTKAYSGGYNLPIGQADEMERYVEENQTRNKHINPNEWWKVYPSSVTEFKFLFVSGHFKGNYKAQLTRLNHITNCNGAVLSVEELLIGGEMIKAGTLTLEEVRRKFNNGEINF
In series [4], B4 yielded a % GC (fraction of amplification product cleaved by BsrBI), 5 ug of each plasmid of 2.3%.
